Results from PubChem BioAssay AID686978 (National Center for Advancing Translational Sciences (NCATS), 2013).
Where “and” joins values, the source holds several entries; their conditions need not be identical. Identical values can stand only once. The campaign covered roughly 420,000 compounds. About 64,000 (15%) were called active. This list was built around the results that the source calls inconclusive (neither active nor inactive); the mix of calls is not that of the screen. The call rests on the fitted dose curve; in most records, active means well fitted inhibition curve with a large enough effect; inconclusive means small, poorly fitted or top-dose-only effect; inactive means flat fitted curve, though single readings scatter. Potencies beside an inconclusive call are fits to weak or partial responses and may not hold up.

Test: qHTS for Inhibitors of human tyrosyl-DNA phosphodiesterase 1 (TDP1): qHTS in cells in absence of CPT; further: nearly all actives have a fitted effect of over 55% in size
Conditions: DT40 Tdp1-/- hTDP1 cells, no CPT, ATP luminescence, 48 h; activity change, negative = growth inhibition: at 46.2 µM (top of the series) unless noted
Procedure, shortened: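 Seeded 400 DT40-hTDP1 cells/well (vehicle DMSO, no 20 nM CPT); pinned compounds; ≥48 hr at 37 °C; CellTiter-Glo luminescence as viability measure.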
On the % scale 0 is the no-effect control and ±100 the full control effect; potency means the concentration at half of the fitted maximal effect; tags describe the fitted curve by direction and shape.

| SMILES | Potency | activity change, negative = growth inhibition |
| --- | --- | --- |
| CC(NC(=O)Oc1ccccc1)C(c1cccs1)N1CCOCC1 (configuration not stated) | inactive | – |
| COc1ccc(-n2nnnc2C(c2cccc3ccccc23)N2CCC(n3c(=O)[nH]c4ccccc43)CC2)cc1 (configuration not stated) | active: 16.4 µM | – |
| c1ccc(C2(N3CCCC3)CCCCC2)cc1 | active: 18.8 µM | – |
| COc1cccc(C(=O)C2CCCN(Cc3cccc4c3OCO4)C2)c1 (configuration not stated) | inconclusive: 29.1 µM [inhibitor, single point] | – |
| [Hg+][c]1ccccc1 | active: 0.1 µM | – |
| C#C[C@]1(O)CC[C@H]2[C@@H]3CCC4=CC(=O)CC[C@]4(C)[C@H]3CC[C@@]21C | inactive | – |
| COC1C(O)C(OC2CC[C@]3(C=O)C4C(OC(C)=O)C[C@@]5(C)C(C6=CC(=O)OC6)CC[C@]5(O)C4CC[C@]3(O)C2)OC(C)C1OC(C)=O (some centres not stated) | inactive | – |
| COc1ccccc1OC(C)C(=O)N1CCC(Cc2ccccc2)CC1 (configuration not stated) | inconclusive: 32.6 µM [inhibitor, partial curve, poor fit] | – |
| Cc1nc2ccccc2c(=O)n1-c1ccc(F)cc1 | inactive | – |
| CC(=Nc1ccc(F)cc1)c1c(O)n(C)c(=O)[nH]c1=O | inactive | – |
| CCOC(C(=O)OCCC[N+](C)(CC)CC)(c1ccccc1)c1ccccc1 | – | inconclusive: -36.7% [inhibitor] |
| CC1=C[C@@H]2c3cccc4[nH]cc(c34)C[C@H]2N(C)C1 | inconclusive: 23.1 µM [inhibitor, single point] and inconclusive: 29.1 µM [inhibitor, single point] | – |
| Cn1ncc2c(NCc3ccc(F)cc3)ncnc21 | inconclusive: 13 µM [inhibitor, single point] | – |
| O=C1c2ccccc2S(=O)(=O)c2cc(C(=O)N3CCN(c4c(Cl)cncc4Cl)CC3)ccc21 | active: 14.6 µM | – |
| COc1cc(-c2nc3ccc(Cl)cn3c2Nc2ccc3c(c2)OCCO3)ccc1O | inconclusive: 29.1 µM [inhibitor, single point] | – |
| CN(C)c1cccc(CN2CCN(c3ccccc3)CC2)c1 | inconclusive: 23.1 µM [inhibitor, single point] | – |
| CCn1c(O)c(C=NCc2cccs2)c(=O)[nH]c1=O | active: 29.1 µM | – |
| CC(=O)OC1CC(OC(C)=O)[C@]2(C)C(CC(OC(C)=O)[C@]3(C)C2CC[C@@]2(C)C(c4ccoc4)C(=O)C4O[C@]432)C1(C)C (some centres not stated) | inconclusive: 14.6 µM [inhibitor, single point] | – |
| COC(=O)C(O)(c1ccc(NC(=S)NC(=O)c2ccc(Cl)cc2Cl)c(C)c1)C(F)(F)F (configuration not stated) | active: 20.6 µM | – |
| Clc1cccc(Cl)c1NC1=NCCS1 | inconclusive: 0.82 µM [inhibitor, full curve, poor fit] | – |
| Cc1cc(=O)oc2cc(OCC(=O)N3CCN(C(C)c4ccccc4)CC3)c(Cl)cc12 (configuration not stated) | inconclusive: 29.1 µM [inhibitor, single point] | – |
| Cc1ccc(N=CN(C)C=Nc2ccc(C)cc2C)c(C)c1 | inactive | – |
| CC(NC1=NCCS1)c1ccccc1 (configuration not stated) | inactive | – |
| Oc1ccc(C[C@H]2NCCc3cc(O)c(O)cc32)cc1O | inconclusive: 20.6 µM [inhibitor, single point] | – |

| SMILES | Potency | activity change, negative = growth inhibition |
| --- | --- | --- |
| O=C1C(Cl)=CC(=Nc2ccc(O)cc2)C=C1Cl | active: 2.59 µM | – |
| Cc1cccc(-n2c(O)c(/C=N/N3CCOCC3)c(=O)[nH]c2=S)c1 | inactive | – |
| COc1ccc(-c2cc(=O)oc3c(C)c(OC(C)C(=O)N4C[C@H]5C[C@@H](C4)c4cccc(=O)n4C5)ccc23)cc1 (some centres not stated) | inconclusive: 14.6 µM [inhibitor, partial curve] | – |
| CC1(Cc2ccc(C(F)(F)F)nc2)C(=O)Nc2cc(-c3ccccc3Cl)ccc21 (configuration not stated) | inconclusive: 29.1 µM [inhibitor, single point] | – |
| CC(=O)[C@]1(O)CCC2C3CCC4=CC(=O)CC[C@@]4(C)C3CC[C@]21C (some centres not stated) | inactive | – |
| COc1ccc(N2C(=O)/C(=C/c3ccc(C)o3)C(=O)NC2=S)c(OC)c1 | inconclusive: 20.6 µM [inhibitor, single point] | – |
| O=C1NCN(c2ccccc2)C12CCN(C(c1ccccc1OC(F)(F)F)c1nnnn1C1CCCC1)CC2 (configuration not stated) | inconclusive: 29.1 µM [inhibitor, single point] | – |
| COc1ccc(CN2CCCC(C(=O)c3ccccc3SC)C2)cc1O (configuration not stated) | inconclusive: 29.1 µM [inhibitor, single point] | – |
| C[C@]12CCC3C(CC[C@H]4C[C@H](N)CC[C@]34C)C1CC[C@H]2O (some centres not stated) | inconclusive: 29.1 µM [inhibitor, single point] | – |
| Cc1nc2ccccc2n1C1CCN(Cc2nnnn2CCc2ccccc2)CC1 | inconclusive: 29.1 µM [inhibitor, single point] | – |
| COc1ccc(N2C(=O)/C(=C/c3cccs3)C(=O)NC2=S)cc1 | active: 3.66 µM | – |
| CCC(=NCC1CCCO1)c1c(O)n(Cc2ccccc2)c(=O)[nH]c1=O (configuration not stated) | inconclusive: 20.6 µM [inhibitor, single point] | – |
| CC(C)CC(N(C)C)C1(c2ccc(Cl)cc2)CCC1 (configuration not stated) | inactive and inconclusive: 2.91 µM [inhibitor, full curve] | – |
| NC(Cc1ccc(Cl)cc1)c1csc(Nc2ncccn2)n1 (configuration not stated) | active: 4.11 µM | – |
| c1ccc2sc(N3CCNCC3)nc2c1 | inactive | – |
| CCOC(=O)c1ccc(NC(=O)c2cccn(Cc3ccc(C)cc3)c2=O)cc1 | inactive | – |
| O=C1N(c2ccc(Cl)cc2)C(c2cccnc2)N2CCCN12 (configuration not stated) | inconclusive: 4.61 µM [inhibitor, full curve, poor fit] | – |
| CC(C)CN1CCN(Cc2ccccc2C(F)(F)F)CC1CCO (configuration not stated) | inactive | – |
| COC(=O)c1c(NC(=O)C2CC=CCC2C(=O)O)sc2c1CCCCC2 (configuration not stated) | inconclusive: 29.1 µM [inhibitor, single point] | – |
| COc1ccc(S(=O)(=O)N2Cc3ccccc3-n3nncc3C2)cc1 | active: 14.6 µM | – |
| COCCCNC(=S)NCCCNc1nc2cc(C)cc(C)c2cc1C#N | inconclusive: 29.1 µM [inhibitor, single point] | – |
| COC(=O)C1=C(c2ccccc2OCc2ccccc2)C[C@@H]2CC[C@H]1N2C(=O)NCc1cccc(C(F)(F)F)c1 | active: 16.4 µM | – |
| CC(=O)OC(C)(C)/C=C/C(=O)[C@](C)(O)[C@H]1[C@H](O)C[C@@]2(C)[C@@H]3CC=C4[C@H](C[C@H](O)C(=O)C4(C)C)[C@]3(C)C(=O)C[C@]12C | active: 0.0073 µM | – |
| COc1ccc(C(c2nnnn2-c2ccc3c(c2)OCCO3)N2CCC3(CC2)C(=O)NCN3c2ccccc2)cc1 (configuration not stated) | active: 25.9 µM | – |

| SMILES | Potency | activity change, negative = growth inhibition |
| --- | --- | --- |
| O=C1NC(=O)N(c2ccccc2)C(=O)/C1=C\c1ccccc1[N+](=O)[O-] | inactive | – |
| COc1cc(C(=O)NC2CC3CCCC(C2)N3CC(=O)Nc2ccccc2)cc(OC)c1OC (configuration not stated) | inconclusive: 18.4 µM [inhibitor, single point] | – |
| O=C(Nc1ccccc1)c1c(O)c2c(n(Cc3ccco3)c1=O)CCCC2 | inconclusive: 20.6 µM [inhibitor, single point] | – |
| COc1ccc(Sc2cnn(-c3ccccc3)c(=O)c2Cl)cc1 | inconclusive: 29.1 µM [inhibitor, single point] | – |
| CCc1cccc(NC(=O)C2CCN(S(=O)(=O)c3ccc(Br)s3)CC2)c1 | inconclusive: 29.1 µM [inhibitor, single point] | – |
| CC(=O)OC1CC[C@@]2(C)C3CC(=O)[C@]4(C)C(C(C)=O)=CCC4C3CC[C@H]2C1 (some centres not stated) | inconclusive: 6.51 µM [inhibitor, partial curve] | – |
| Nc1ccc(S(=O)(=O)NCc2ccccc2)cc1 | inconclusive: 33.5 µM [inhibitor, single point] | – |
| CCc1ccccc1N1C(=O)/C(=C/c2ccc(N3CCN(C)CC3)o2)C(=O)NC1=S | inconclusive: 20.6 µM [inhibitor, single point] | – |
| CC(C)CCOC(=O)c1c(N)n(CC2CCCO2)c2nc3ccccc3nc12 (configuration not stated) | active: 20.6 µM | – |
| CN1C2C=C(N(C(=O)c3ccc(Cl)cc3)c3ccccc3)CC1CC2 (configuration not stated) | inconclusive: 16.4 µM [inhibitor, single point] | – |
| Nc1ccc(C2(c3ccc(N)cc3)c3ccccc3-c3ccccc32)cc1 | inactive | – |
| COc1cc(OC)cc(C(=O)Nc2nc(-c3nnn(-c4ccc(C)cc4)c3C)ns2)c1 | inconclusive: 10.3 µM [inhibitor, partial curve] | – |
| CNC(C)C(O)c1ccc(O)cc1 (configuration not stated) | inactive | – |
| Cc1ccc(NC(=O)c2snnc2C)cc1Cl | inactive | – |
| O=C(O)c1ccc(/C=C/c2nc3ccccc3c(=O)n2-c2ccc(Br)cc2)cc1 | inconclusive: 25.9 µM [inhibitor, partial curve] | – |
| CNC(=O)O/N=C(/C)SC | inactive | – |
| O=Cc1cn(Cc2ccc([N+](=O)[O-])cc2)c2ccccc12 | inconclusive: 29.1 µM [inhibitor, single point] | – |
| CCCCNc1ccncc1S(=O)(=O)NC(=O)NC(C)C | inactive | – |
| Cc1ccc(Cl)c2sc(NC(=O)c3ccc(S(=O)(=O)N4CCCC4)cc3)nc12 | inconclusive: 29.1 µM [inhibitor, single point] | – |
| O=C1CCCC2=C1C(c1cccnc1)Nc1ccccc1N2 (configuration not stated) | inactive | – |
| CCOC(=O)C1(CCc2ccccc2)CCN(Cc2ccco2)CC1 | inconclusive: 20.6 µM [inhibitor, single point] | – |
| CCOC(=O)c1ccc(NC(=O)c2nc[nH]c2C(=O)NCCNC(=O)c2[nH]cnc2C(=O)Nc2ccc(C(=O)OCC)cc2)cc1 | active: 3.66 µM | – |
| O=C(COc1ccccc1)N1CCN(CC2CC=CCC2)CC1 (configuration not stated) | inactive | – |
| CC(C)CCCC(C)C1CCC2C3CC(=O)[C@H]4CC(O)CC[C@]4(C)C3CC[C@@]12C (some centres not stated) | inconclusive: 29.1 µM [inhibitor, single point] | – |
